US11530237B2, “Compositions and methods for treating CNS disorders” (Sage Therapeutics, Inc., priority 2014, dated 2022)
For at least one compound, name, drawing or mass did not settle the structure.

The molecules below were run against [35S]-TBPS binding, rat brain cortical membranes (assay: Steroid inhibition of TBPS binding ([35S]-TBPS radioligand displacement)). Conditions: 3 nM [35S]-TBPS, 5 μM GABA.
Description: TBPS binding assays using rat brain cortical membranes in the presence of 5 μM GABA has been described (Gee et al, J. Pharmacol. Exp. Then 1987, 241, 346-353; Hawkinson et al, Mol. Pharmacol. 1994, 46, 977-985; Lewin, A. H et al., Mol. Pharmacol. 1989, 35, 189-194).
Briefly, cortices are rapidly removed following decapitation of carbon dioxide-anesthetized Sprague-Dawley rats (200-250 g). The cortices are homogenized in 10 volumes of […] using a glass/teflon homogenizer and centrifuged at 1500×g for 10 min at 4° C. The resultant supernatants are centrifuged at 10,000×g for 20 min at 4° C. to obtain the P2 pellets. The P2 pellets are resuspended in 200 mM NaCl/50 mM Na—K phosphate pH 7.4 buffer and centrifuged at 10,000×g for 10 min at 4° C. This washing procedure is repeated twice and the pellets are resuspended in 10 volumes of buffer. Aliquots (100 μL) of the membrane suspensions are incubated with 3 nM [^35S]-TBPS and 5 μL aliquots of test drug dissolved in dimethyl sulfoxide (DMSO) (final 0.5%) in the presence of 5 μM GABA. The incubation is brought to a final volume of 1.0 mL with buffer. […] Following a 90 min incubation at room temp, the assays are terminated by filtration through glass fiber filters (Schleicher and Schuell No. 32) using a cell harvester (Braudel) and rinsed three times with ice-cold buffer. Filter bound radioactivity is measured by liquid scintillation spectrometry. Non-linear curve fitting of the overall data for each drug averaged for each concentration is done using Prism (GraphPad).
Various compounds are or can be screened to determine their potential as modulators of [^35S]-TBPS binding in vitro. These assays are or can be performed in accordance with the above discussed procedures.

Compound	IC50 [µM]
C[C@@]1(O)CC[C@@]2(C)[C@H](CC[C@@H]3[C@@H]2CC[C@]2(C)[C@@H](C(=O)Cn4nc5cc(F)c(F)cc5n4)CC[C@@H]32)C1 [Compound 69]	0.01 to 0.05
CSc1cnn(CC(=O)[C@H]2CC[C@H]3[C@@H]4CC[C@@H]5C[C@](C)(O)CC[C@]5(C)[C@H]4CC[C@]23C)c1 [Compound 70]	0.01 to 0.05
C[C@@]1(O)CC[C@@]2(C)[C@H](CC[C@@H]3[C@@H]2CC[C@]2(C)[C@@H](C(=O)Cn4cc(S(C)(=O)=O)cn4)CC[C@@H]32)C1 [Compound 71]	0.01 to 0.05
CSc1ccc2nn(CC(=O)[C@H]3CC[C@H]4[C@@H]5CC[C@@H]6C[C@](C)(O)CC[C@]6(C)[C@H]5CC[C@]34C)nc2c1 [Compound 74]	< 0.01
CSc1ccc2c(c1)nnn2CC(=O)[C@H]1CC[C@H]2[C@@H]3CC[C@@H]4C[C@](C)(O)CC[C@]4(C)[C@H]3CC[C@]12C [Compound 75]	0.01 to 0.05
CSc1ccc2nnn(CC(=O)[C@H]3CC[C@H]4[C@@H]5CC[C@@H]6C[C@](C)(O)CC[C@]6(C)[C@H]5CC[C@]34C)c2c1 [Compound 76]	0.01 to 0.05
C[C@@]1(O)CC[C@@]2(C)[C@H](CC[C@@H]3[C@@H]2CC[C@]2(C)[C@@H](C(=O)Cn4nc5ccc(F)c(F)c5n4)CC[C@@H]32)C1 [Compound 77]	0.01 to 0.05
C[C@@]1(O)CC[C@@]2(C)[C@H](CC[C@@H]3[C@@H]2CC[C@]2(C)[C@@H](C(=O)Cn4nnc5c(F)c(F)ccc54)CC[C@@H]32)C1 [Compound 78]	< 0.01
C[S+]([O-])c1ccc2nn(CC(=O)[C@H]3CC[C@H]4[C@@H]5CC[C@H]6C[C@](C)(O)CC[C@]6(C)[C@H]5CC[C@]34C)nc2c1 (some centres unmarked) [Compound 103]	< 0.01
C[C@@]1(O)CC[C@@]2(C)[C@@H](CC[C@@H]3[C@@H]2CC[C@]2(C)[C@@H](C(=O)Cn4nnc5c(F)c(F)ccc54)CC[C@@H]32)C1 [Compound 107, 2-(4,5-difluoro-1H-benzo[d][1,2,3]triazol-1-yl)-1-((3R,5S,8R,9S,10S,13S,14S,17S)-3-hydroxy-3,10,13-trimethylhexadecahydro-1H-cyclopenta[a]phenanthren-17-yl)ethanone]	0.01 to 0.05
C[C@@]1(O)CC[C@@]2(C)[C@@H](CC[C@@H]3[C@@H]2CC[C@]2(C)[C@@H](C(=O)Cn4nnc5c(F)cccc54)CC[C@@H]32)C1 [Compound 109]	0.05 to 0.1
C[C@@]1(O)CC[C@@]2(C)[C@@H](CC[C@@H]3[C@@H]2CC[C@]2(C)[C@@H](C(=O)Cn4nc5cccc(F)c5n4)CC[C@@H]32)C1 [Compound 110]	0.01 to 0.05
C[C@@]1(O)CC[C@@]2(C)[C@@H](CC[C@@H]3[C@@H]2CC[C@]2(C)[C@@H](C(=O)Cn4nnc5c(F)c(Cl)ccc54)CC[C@@H]32)C1 [Compound 111]	0.05 to 0.1
C[C@@]1(O)CC[C@@]2(C)[C@@H](CC[C@@H]3[C@@H]2CC[C@]2(C)[C@@H](C(=O)Cn4nc5ccc(Cl)c(F)c5n4)CC[C@@H]32)C1 [Compound 112]	0.01 to 0.05
CSc1cnn(CC(=O)[C@H]2CC[C@H]3[C@@H]4CC[C@H]5C[C@](C)(O)CC[C@]5(C)[C@H]4CC[C@]23C)c1 [Compound 114]	0.01 to 0.05
C[C@@]1(O)CC[C@@]2(C)[C@@H](CC[C@@H]3[C@@H]2CC[C@]2(C)[C@@H](C(=O)Cn4ncnn4)CC[C@@H]32)C1 [Compound 118]	0.01 to 0.05
C[C@@]1(O)CC[C@@]2(C)[C@@H](CC[C@@H]3[C@@H]2CC[C@]2(C)[C@@H](C(=O)Cn4nnc5ccccc54)CC[C@@H]32)C1 [Compound 119]	0.01 to 0.05
C[C@@]1(O)CC[C@@]2(C)[C@@H](CC[C@@H]3[C@@H]2CC[C@]2(C)[C@@H](C(=O)Cn4nc5ccccc5n4)CC[C@@H]32)C1 [Compound 120]	0.01 to 0.05
C[C@@]1(O)CC[C@@]2(C)[C@@H](CC[C@@H]3[C@@H]2CC[C@]2(C)[C@@H](C(=O)Cn4ccc(C#N)n4)CC[C@@H]32)C1 [Compound 121]	0.01 to 0.05
C[C@@]1(O)CC[C@@]2(C)[C@@H](CC[C@@H]3[C@@H]2CC[C@]2(C)[C@@H](C(=O)Cn4nnc5cc(F)c(F)cc54)CC[C@@H]32)C1 [Compound 124]	< 0.01
COc1ccc2nn(CC(=O)[C@H]3CC[C@H]4[C@@H]5CC[C@H]6C[C@](C)(O)CC[C@]6(C)[C@H]5CC[C@]34C)nc2c1 [Compound 125]	0.01 to 0.05
COc1ccc2nnn(CC(=O)[C@H]3CC[C@H]4[C@@H]5CC[C@H]6C[C@](C)(O)CC[C@]6(C)[C@H]5CC[C@]34C)c2c1 [Compound 126]	0.01 to 0.05
COc1ccc2c(c1)nnn2CC(=O)[C@H]1CC[C@H]2[C@@H]3CC[C@H]4C[C@](C)(O)CC[C@]4(C)[C@H]3CC[C@]12C [Compound 127]	0.01 to 0.05
C[C@@]1(O)CC[C@@]2(C)[C@@H](CC[C@@H]3[C@@H]2CC[C@]2(C)[C@@H](C(=O)Cn4nc5cccc(F)c5n4)CC[C@@H]32)C1 [Compound 128]	< 0.01

Compound	IC50 [µM]
C[C@@]1(O)CC[C@@]2(C)[C@@H](CC[C@@H]3[C@@H]2CC[C@]2(C)[C@@H](C(=O)Cn4ccnc4C#N)CC[C@@H]32)C1 [Compound 129]	0.05 to 0.1
Cc1cnn(CC(=O)[C@H]2CC[C@H]3[C@@H]4CC[C@H]5C[C@](C)(O)CC[C@]5(C)[C@H]4CC[C@]23C)c1 [Compound 130]	0.1 to 0.5
C[C@@]1(O)CC[C@@]2(C)[C@@H](CC[C@@H]3[C@@H]2CC[C@]2(C)[C@@H](C(=O)Cn4cc(C(F)(F)F)cn4)CC[C@@H]32)C1 [Compound 131]	0.05 to 0.1
C[C@@]1(O)CC[C@@]2(C)[C@H](CC[C@@H]3[C@@H]2CC[C@]2(C)[C@@H](C(=O)Cn4cc(Cl)cn4)CC[C@@H]32)C1 [Compound 133]	< 0.01
C[C@@]1(O)CC[C@@]2(C)[C@H](CC[C@@H]3[C@@H]2CC[C@]2(C)[C@@H](C(=O)Cn4cc(C(F)(F)F)cn4)CC[C@@H]32)C1 [Compound 134]	0.01 to 0.05
Cc1cn(CC(=O)[C@H]2CC[C@H]3[C@@H]4CC[C@H]5C[C@](C)(O)CC[C@]5(C)[C@H]4CC[C@]23C)cn1 [Compound 135]	0.05 to 0.1
Cc1cncn1CC(=O)[C@H]1CC[C@H]2[C@@H]3CC[C@H]4C[C@](C)(O)CC[C@]4(C)[C@H]3CC[C@]12C [Compound 136]	0.1 to 0.5
C[C@@]1(O)CC[C@@]2(C)[C@@H](CC[C@@H]3[C@@H]2CC[C@]2(C)[C@@H](C(=O)Cn4cc(Cl)cn4)CC[C@@H]32)C1 [Compound 137]	0.01 to 0.05
COC[C@@]1(O)CC[C@@]2(C)[C@@H](CC[C@@H]3[C@@H]2CC[C@]2(C)[C@@H](C(=O)Cn4cc(C)cn4)CC[C@@H]32)C1 [Compound 139]	0.01 to 0.05
COC[C@@]1(O)CC[C@@]2(C)[C@@H](CC[C@@H]3[C@@H]2CC[C@]2(C)[C@@H](C(=O)Cn4cc(C(F)(F)F)cn4)CC[C@@H]32)C1 [Compound 140]	0.01 to 0.05
COC[C@@]1(O)CC[C@@]2(C)[C@@H](CC[C@@H]3[C@@H]2CC[C@]2(C)[C@@H](C(=O)Cn4ccnc4)CC[C@@H]32)C1 [Compound 141]	0.05 to 0.1
COC[C@@]1(O)CC[C@@]2(C)[C@@H](CC[C@@H]3[C@@H]2CC[C@]2(C)[C@@H](C(=O)Cn4cc(C#N)cn4)CC[C@@H]32)C1 [Compound 142]	0.01 to 0.05
C[C@@]1(O)CC[C@@]2(C)[C@H](CC[C@@H]3[C@@H]2CC[C@]2(C)[C@@H](C(=O)Cn4ccnc4C#N)CC[C@@H]32)C1 [Compound 143]	0.01 to 0.05
CCOc1cnn(CC(=O)[C@H]2CC[C@H]3[C@@H]4CC[C@@H]5C[C@](C)(O)CC[C@]5(C)[C@H]4CC[C@]23C)c1 [Compound 145]	0.01 to 0.05
C[C@@]1(O)CC[C@@]2(C)[C@H](CC[C@@H]3[C@@H]2CC[C@]2(C)[C@@H](C(=O)Cn4cc([N+](=O)[O-])cn4)CC[C@@H]32)C1 [Compound 146]	< 0.01
Cc1cnn(CC(=O)[C@H]2CC[C@H]3[C@@H]4CC[C@@H]5C[C@](C)(O)CC[C@]5(C)[C@H]4CC[C@]23C)c1 [Compound 147]	0.01 to 0.05
COc1cnn(CC(=O)[C@H]2CC[C@H]3[C@@H]4CC[C@H]5C[C@](C)(O)CC[C@]5(C)[C@H]4CC[C@]23C)c1 [Compound 148]	0.01 to 0.05
CCOc1cnn(CC(=O)[C@H]2CC[C@H]3[C@@H]4CC[C@H]5C[C@](C)(O)CC[C@]5(C)[C@H]4CC[C@]23C)c1 [Compound 149]	0.1 to 0.5
CC(C)Oc1cnn(CC(=O)[C@H]2CC[C@H]3[C@@H]4CC[C@H]5C[C@](C)(O)CC[C@]5(C)[C@H]4CC[C@]23C)c1 [Compound 150]	0.1 to 0.5
C[C@@]1(O)CC[C@@]2(C)[C@@H](CC[C@@H]3[C@@H]2CC[C@]2(C)[C@@H](C(=O)Cn4cc([N+](=O)[O-])cn4)CC[C@@H]32)C1 [Compound 151]	0.01 to 0.05
C[C@@]1(O)CC[C@@]2(C)[C@@H](CC[C@@H]3[C@@H]2CC[C@]2(C)[C@@H](C(=O)Cn4cnc(C#N)c4)CC[C@@H]32)C1 [Compound 154]	0.01 to 0.05
C[C@@]1(O)CC[C@@]2(C)[C@@H](CC[C@@H]3[C@@H]2CC[C@]2(C)[C@@H](C(=O)Cn4cc(C(=O)O)cn4)CC[C@@H]32)C1 [Compound 156]	> 0.5
CNC(=O)c1cnn(CC(=O)[C@H]2CC[C@H]3[C@@H]4CC[C@H]5C[C@](C)(O)CC[C@]5(C)[C@H]4CC[C@]23C)c1 [Compound 157]	> 0.5
